From the supplement of paper PMC12217912
Some of the results follow. Sequences were assembled here from the parent chain. Values near 0.05 are background.

B1: TEV protease; numbered along this chain (parent)
chain: MGESLFKGPRDYNPISSSICHLTNESDGHTTSLYGIGFGPFIITNKHLFRRNNGTLVVQSLHGVFKVKDTTTLQQHLVDGRDMIIIRMPKDFPPFPQKLKFREPQREERICLVTTNFQTKSMSSMVSDTSCTFPSGDGIFWKHWIQTKDGQCGSPLVSTRDGFIVGIHSASNFTNTNNYFTSVPKNFMELLTNQEAQQWVSGWRLNADSVLWGGHKVFMVKPEEPFQPVKEATQL

Variants of: B1
Assay: raw area under fraction-flipped curve 0-4 h after induction (AUC4h, not background-subtracted), DNA-recorder readout of cleavage of the substrate (dimensionless); higher = more cleavage of the substrate by the protease variant
Details: temperature: 34 °C; time window: 0-4 h after rhamnose induction
Protocol: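 In vivo DNA recorder in E. coli TOP10(DE3) ΔrhaA at 34 °C. Each TEVp single-site mutant (parent TEVp 0) is paired with a single-site variant of the 7-mer TEVs (canonical ENLYFQ|S). The substrate sits between flexible linkers in a Bxb1-sfGFP-TEVs-SsrA fusion, so cleavage stabilises Bxb1 and speeds flipping of a recombination array, read by NGS. The value is the raw area under the fraction-flipped curve over 0-4 h after rhamnose induction (AUC4h), with ≥20 reads per time point. It is not background-subtracted; inactive controls average about 0.047.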
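Note: Bxb1 expression induced with 0.2% (w/v) L-rhamnose at OD600 near 0.5, cultures sampled hourly, flipped fraction per protease–substrate barcode pair counted by paired-end Illumina sequencing.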

Row | Variant | area with substrate ANLYFQS | area with substrate CNLYFQS | area with substrate DNLYFQS | area with substrate FNLYFQS | area with substrate GNLYFQS | area with substrate HNLYFQS | area with substrate INLYFQS | area with substrate KNLYFQS | area with substrate LNLYFQS | area with substrate PNLYFQS | area with substrate SNLYFQS | area with substrate TNLYFQS | area with substrate YNLYFQS | area with substrate MNLYFQS | area with substrate NNLYFQS | area with substrate WNLYFQS | area with substrate QNLYFQS | area with substrate RNLYFQS | area with substrate VNLYFQS
1 | MGESLFKGPRDYNPISSSICHLTNESDGHTTSLYGIGFGPFIITNKHLFDRNNGTLVVQSLHGVFKVKDTTTLQQHLVDGRDMIIIRMPKDFPPFPQKLKFREPQREERICLVTTNFQTKSMSSMVSDTSCTFPSGDGIFWKHWIQTKDGQCGSPLVSTRDGFIVGIHSASNFTNTNNYFTSVPKNFMELLTNQEAQQWVSGWRLNADSVLWGGHKVFMVKPEEPFQPVKEATQL [R50D] | 0.0611 | 0.0623 | 0.0663 | 0.0663 | 0.0614 | 0.0529 | 0.0512 | 0.0669 | 0.056 | 0.0683 | 0.0624 | 0.0693 | 0.0509 | – | – | – | – | – | –
2 | MGESLFKGPRDYNPISSSICHLTNESDGHTTSLYGIGFGPFIITNKHLFRRNNRTLVVQSLHGVFKVKDTTTLQQHLVDGRDMIIIRMPKDFPPFPQKLKFREPQREERICLVTTNFQTKSMSSMVSDTSCTFPSGDGIFWKHWIQTKDGQCGSPLVSTRDGFIVGIHSASNFTNTNNYFTSVPKNFMELLTNQEAQQWVSGWRLNADSVLWGGHKVFMVKPEEPFQPVKEATQL [G54R] | 0.058 | 0.0513 | 0.056 | 0.0497 | – | 0.0578 | 0.0833 | 0.0674 | 0.0591 | 0.0605 | 0.0789 | 0.0653 | 0.0572 | 0.0664 | 0.0562 | 0.0658 | – | – | –
3 | MGESLFKGPRDYNPISSSICHLTNESDGHTTSLYGIGFGPFIITNKHLFRRNNHTLVVQSLHGVFKVKDTTTLQQHLVDGRDMIIIRMPKDFPPFPQKLKFREPQREERICLVTTNFQTKSMSSMVSDTSCTFPSGDGIFWKHWIQTKDGQCGSPLVSTRDGFIVGIHSASNFTNTNNYFTSVPKNFMELLTNQEAQQWVSGWRLNADSVLWGGHKVFMVKPEEPFQPVKEATQL [G54H] | 0.0601 | 0.0486 | 0.0469 | 0.0598 | 0.051 | 0.0608 | – | – | 0.0609 | 0.0537 | 0.0621 | 0.0392 | 0.045 | 0.0286 | – | 0.0584 | 0.0671 | 0.0837 | 0.0545
4 | MGESLFKGPRDYNPISSSICHLTNESDGHTTSLYGIGFGPFIITNKHLFRRNNLTLVVQSLHGVFKVKDTTTLQQHLVDGRDMIIIRMPKDFPPFPQKLKFREPQREERICLVTTNFQTKSMSSMVSDTSCTFPSGDGIFWKHWIQTKDGQCGSPLVSTRDGFIVGIHSASNFTNTNNYFTSVPKNFMELLTNQEAQQWVSGWRLNADSVLWGGHKVFMVKPEEPFQPVKEATQL [G54L] | 0.0659 | 0.0606 | 0.0524 | – | 0.0492 | 0.0459 | 0.0471 | – | 0.0633 | 0.0554 | 0.0475 | 0.0588 | 0.0474 | 0.0507 | 0.0628 | 0.0483 | 0.0412 | – | 0.0497
5 | MGESLFKGPRDYNPISSSICHLTNESDGHTTSLYGIGFGPFIITNKHLFRRNNGTLGVQSLHGVFKVKDTTTLQQHLVDGRDMIIIRMPKDFPPFPQKLKFREPQREERICLVTTNFQTKSMSSMVSDTSCTFPSGDGIFWKHWIQTKDGQCGSPLVSTRDGFIVGIHSASNFTNTNNYFTSVPKNFMELLTNQEAQQWVSGWRLNADSVLWGGHKVFMVKPEEPFQPVKEATQL [V57G] | 0.0514 | 0.0638 | 0.0834 | 0.0726 | 0.0623 | 0.0624 | 0.0649 | – | 0.0554 | 0.0665 | 0.0384 | 0.0788 | – | 0.0427 | – | 0.0609 | – | – | –
6 | MGESLFKGPRDYNPISSSICHLTNESDGHTTSLYGIGFGPFIITNKHLFRRNNGTLLVQSLHGVFKVKDTTTLQQHLVDGRDMIIIRMPKDFPPFPQKLKFREPQREERICLVTTNFQTKSMSSMVSDTSCTFPSGDGIFWKHWIQTKDGQCGSPLVSTRDGFIVGIHSASNFTNTNNYFTSVPKNFMELLTNQEAQQWVSGWRLNADSVLWGGHKVFMVKPEEPFQPVKEATQL [V57L] | 0.072 | 0.0646 | 0.0955 | – | – | – | 0.0852 | – | 0.0733 | – | 0.0595 | – | 0.055 | – | 0.0705 | 0.0941 | – | – | 0.0782
7 | MGESLFKGPRDYNPISSSICHLTNESDGHTTSLYGIGFGPFIITNKHLFRRNNGTLWVQSLHGVFKVKDTTTLQQHLVDGRDMIIIRMPKDFPPFPQKLKFREPQREERICLVTTNFQTKSMSSMVSDTSCTFPSGDGIFWKHWIQTKDGQCGSPLVSTRDGFIVGIHSASNFTNTNNYFTSVPKNFMELLTNQEAQQWVSGWRLNADSVLWGGHKVFMVKPEEPFQPVKEATQL [V57W] | 0.0684 | 0.075 | 0.0883 | – | – | 0.0627 | 0.072 | – | 0.0555 | 0.0764 | 0.0576 | 0.0507 | – | 0.0675 | – | 0.0575 | – | – | 0.0735
8 | MGESLFKGPRDYNPISSSICHLTNESDGHTTSLYGIGFGPFIITNKHLFRANNGTLVVQSLHGVFKVKDTTTLQQHLVDGRDMIIIRMPKDFPPFPQKLKFREPQREERICLVTTNFQTKSMSSMVSDTSCTFPSGDGIFWKHWIQTKDGQCGSPLVSTRDGFIVGIHSASNFTNTNNYFTSVPKNFMELLTNQEAQQWVSGWRLNADSVLWGGHKVFMVKPEEPFQPVKEATQL [R51A] | 0.0926 | 0.0713 | 0.0695 | 0.0624 | 0.0623 | – | – | 0.0724 | – | 0.0719 | – | 0.0631 | 0.0805 | – | 0.0568 | 0.063 | – | – | 0.0642
9 | MGESLFKGPRDYNPISSSICHLTNESDGHTTSLYGIGFGPFIITNKHLFRRNNGGLVVQSLHGVFKVKDTTTLQQHLVDGRDMIIIRMPKDFPPFPQKLKFREPQREERICLVTTNFQTKSMSSMVSDTSCTFPSGDGIFWKHWIQTKDGQCGSPLVSTRDGFIVGIHSASNFTNTNNYFTSVPKNFMELLTNQEAQQWVSGWRLNADSVLWGGHKVFMVKPEEPFQPVKEATQL [T55G] | 0.0526 | 0.065 | 0.0663 | 0.059 | 0.0717 | 0.048 | 0.0692 | – | 0.0565 | 0.0534 | – | 0.0808 | – | 0.067 | – | – | 0.062 | 0.0639 | 0.0411
